What is called Km is the concentration of substrate that gives half-maximal velocity. A word on the kcat: it is the number of substrate molecules converted per active site and unit of time at saturation.

In one series the test system is CC(C)C(=O)C(=O)O. The series is described as follows: purified protein, by the assay type. The following applies: other: pH 6.8, coupled with PadA, 25 nM IPDC, 30.0 °C.
For another series, the system named is CC(C)CC(=O)C(=O)O. The experiment in a line: purified protein, by the assay type. As to conditions: other: pH 6.8, coupled with PadA, 25 nM IPDC, 30.0 °C.

Turning to “IPDC (Salmonella enterica subsp. enterica serovar Typhimurium str. LT2)”, in the series with CC(C)C(=O)C(=O)O, the Michaelis constant (Km) stood at 1528 µM and the catalytic constant (kcat) was determined as 7.9 s⁻¹. Also, in the series on CC(C)CC(=O)C(=O)O, the Km came to 216 µM and the kcat was 4.9 s⁻¹.

The values are drawn from patent publication US20140329275A1, “BIOCATALYSIS CELLS AND METHODS” (REGENTS OF THE UNIVERSITY OF MINNESOTA, priority 2011, published 2014).
